The other results are listed elsewhere or left out.
System: PfAP2-HC AP2 domain (GST-tagged)
Assay: gcPBM binding intensity (ln(normalized median fluorescence intensity)); higher = stronger DNA binding
Method in brief: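 Binding intensity is defined as the maximum Masliner-normalised natural-log median intensity across replicate spots for either probe orientation. It was measured on an Agilent 4 × 180k array of primer-extended double-stranded 36-bp intergenic genomic probes and negative controls, to which GST-tagged P. falciparum DNA-binding domains made in E. coli were applied for 1 h in 1× PBS with 1% milk, 0.2 mg/ml BSA, 0.5% salmon testes DNA and 0.03% Triton X-100. Detection was by Alexa488 anti-GST antibody and scanning at 488 nm.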

Sequence	gcPBM binding intensity (ln)
ATATAACATTGTTTTGCATGTAAATATTCAATTTTT [TGCATGCA_site758]	9.64
TCAAATTTAATCATAACACACATTCACATATGAATT [CACACA_site3199]	9.69
ATATAATGAAGTGAATGTACATATAAAATGTAAAAA [XGTACX_site8052]	9.97
AAAAAAAAAAAACACACACACAAATACAAATACATA [CACACA_site415]	11.5
GAAACGTTTTTTCAGTGTACATTTTACCGATTTGTA [XGTACX_site8249]	9.71
TAGTATAATATATATTGTACGTTTTAATTGTTTATA [XGTACX_site2731]	9.56
TAAAGCAACTGAAACACACAAATTTTTTTTTTTTTT [CACACA_site7499]	9.88
AAACTGAAAAAAATATGTACATATTTATATCTTATA [XGTACX_site3011]	9.61
ATTGTATAAAAATGTACATGCAATAAATTTAGTTCT [TGCATGCA_site675]	9.68
TTATTAACGGAACTCTGTACTTAAAAAATTTTAGAA [XGTACX_site8787]	9.3
AAAAAAACAGAAAACACACAAATTATCTTATAATTA [CACACA_site6282]	9.8
TATATAAGAATATATACACACATATCTGTATTTATA [CACACA_site5231]	9.73
ATTGTTTCATTAAAATGTACATAAATTGTGTATAAT [XGTACX_site5341]	9.59
GAGTTTATATTTTAAGCATGCATATGTTATTATTAT [TGCATGCA_site1049]	9.89
TATATCAAAAACGAGACATGCATGCCGTTCATTTTG [TGCATGCA_site211]	9.52
TCTTTTTTGAAGCATTTTGTTTTTTAATAAGTAAAA [TGCATGCA_negctrl_site247]	9.35
TATATATATATTTAATGTACATGTTTATTTTATCAT [XGTACX_site499]	9.8
AATAAAATAAAAAAAAATAAAAAAAAAATAAAAAAT [XGTACX_negctrl_site245]	9.92
TATTTTTCTTTTTAAGTGCATGGTTGTATAAAATTT [GTGCAC_site9480]	9.59
TTTATAAAGGGAAAGGTGCAAAAGGTGAAAGTTTTA	9.68
ACATATATATATATATATATATATATATATAGATAG [CACACA_negctrl_site783]	9.92
CTTTTTACTTAATACACACACACACTAAAAAAAAAA [CACACA_site6574]	10.3

Sequence	gcPBM binding intensity (ln)
ACAAAAAAATATTTATGTACTTATTATATTTATAAT [XGTACX_site2059]	9.49
AAAACTAAATGTTATTCGCACACGGAATTTATTTAA [CACACA_site9221]	9.77
ATAAAGAAATTACACACATGCAATGAAAAAAAAAAA [TGCATGCA_site406]	10
ATATATATTATATATGCATGCCAAATCTTTATAAAC [TGCATGCA_site1042]	9.64
ATATGTATAAAAATCCGTACATAAGTGTGCGTATAT [XGTACX_site4376]	9.85
ATAAATAATATGTAAACACACAAAAAATAAAAATGA [CACACA_site1178]	10.3
ATGTTTGAGCCTAAGGTGCATATAAAAATATATGTG [GTGCAC_site9690]	9.6
TACTAAGAAGTATTTACACACCAACAAGGCGAAAAA [CACACA_site2944]	9.78
AAAAAAAAAAGAAATTGTACTTTTTGTTTAATAATT [XGTACX_site4681]	9.41
ATATTTTGTTATGAAACACACACATATATATATATA [CACACA_site9216]	9.9
TTGAGCCTACAAAAGGGTACACATTCAATTTATTTT [XGTACX_site6570]	9.65
TTTTGAATATGGATCTTATATATATTAAATAAATAA [CACACA_negctrl_site344]	9.09
ATTCCAGAAATATATTAACAAGGAAAATATAAAAAT [CACACA_negctrl_site343]	9.54
ATTATATACAAATAAAGTACATAAACAAATTCAGAA [XGTACX_site1187]	10
TATTTCAAACTGTTCTCACACACGAAATTAGAAATG [CACACA_site611]	9.74
ATAAAATGATGTATCTGTGTATGTTTATTTTGTTTT [XGTACX_negctrl_site367]	10
TAAAATAAAAAAGTAGTACACACTTCACGATATTTT [CACACA_site3896]	9.91
TTAAAAGTAAGCAAAGTGCATATAACAAAAGTAAAG	9.86
AATATAAAACTTTAGAGTACTTATCATTAAAATATA [XGTACX_site4509]	9.31
ATTAATAATGAAAAAAAACACACGGTACATTCAAAG [CACACA_site1302]	10
TATATAAGAACTTTTACACACATGAAAATGTAGATA [CACACA_site7711]	9.67
TATATATATATATATACACACATACAGATATATATT [CACACA_site4629]	9.88
